# Test results: the supplement of paper PMC8728848
# The other results are listed elsewhere or left out.
# B1: Na-CTL-1 (Necator americanus) (protein)
# chain: MQRSFLLLLVVLAGAWAVNTTIPLKLMGGFTPMKYQCVGRVSDIWADVLFLIESSDMITKSGFRQVIAFITATTKKMTIGQDEKQTRVGFITYGEEAKLIYDLDHWRSTEKLSDLVQKIPYVKSSGTNIAAAIALANKVFNSPTHRPNVPKVMVIVANGLKKGSQNPIPVATAFKDFGGIIITIEYTQYDNIQVPILKKIASEGYNIRSNDEDFSVRTLTNMLLQANCFCPDHYVPFRVNNPEFGCFVTAKIPSMWRDAAEMCRAVEEGKLVKVENEEKAAFIMKLVGPKKEAWIGLRYYGNKFQWTDGTKLNADDFNLWPEDIKELNGPHCVSMYQDQKDKKYYWRAGKCLEDMRYVCEVQPCSASNYCSEPVFMYRQKHRALLPAPPPPPN
# Experiments:
# Experiment in all cases: glycan array binding signal (z-score within array); higher = stronger binding
# Settings in all cases: glycan notation: IUPAC condensed, linker removed
# Neu5Ac(a2-8)Neu5Ac = target: Neu5Ac(a2-8)Neu5Ac
# Procedure, shortened: (§1)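 Columns mapping to the same glycan were averaged after glycan names were converted to IUPAC-condensed notation. The data come from 3228 arrays in the Consortium for Functional Glycomics database, limited to those with an available protein sequence. Binding is reported as a within-array Z-score averaged across arrays of one protein sequence and across linkers.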
# [1] = target: Neu5Ac(a2-8)Neu5Ac(a2-3)Gal(b1-3)GalNAc(b1-4)[Neu5Ac(a2-3)]Gal(b1-4)Glc
# Procedure, shortened: as §1
# [2] = target: Neu5Ac(a2-8)Neu5Ac(a2-3)Gal(b1-3)GalNAc(b1-4)[Neu5Ac(a2-8)Neu5Ac(a2-3)]Gal(b1-4)Glc
# Procedure, shortened: as §1
# [3] = target: Neu5Ac(a2-8)Neu5Ac(a2-3)Gal(b1-4)Glc
# Procedure, shortened: as §1
# [4] = target: Neu5Ac(a2-8)Neu5Ac(a2-3)Gal(b1-4)GlcNAc
# Procedure, shortened: as §1
# [5] = target: Neu5Ac(a2-8)Neu5Ac(a2-3)[Gal(b1-3)GalNAc(b1-4)]Gal(b1-4)Glc
# Procedure, shortened: as §1
# [6] = target: Neu5Ac(a2-8)Neu5Ac(a2-3)[GalNAc(b1-4)]Gal(b1-4)Glc
# Procedure, shortened: as §1
# [7] = target: Neu5Ac(a2-8)Neu5Ac(a2-8)Neu5Ac
# Procedure, shortened: as §1
# [8] = target: Neu5Ac(a2-8)Neu5Ac(a2-8)Neu5Ac(a2-3)Gal(b1-4)Glc
# Procedure, shortened: as §1
# [9] = target: Neu5Ac(a2-8)Neu5Ac(a2-8)Neu5Ac(a2-3)[Gal(b1-3)GalNAc(b1-4)]Gal(b1-4)Glc
# Procedure, shortened: as §1
# [10] = target: Neu5Ac(a2-8)Neu5Ac(a2-8)Neu5Ac(a2-3)[GalNAc(b1-4)]Gal(b1-4)Glc
# Procedure, shortened: as §1
# [11] = target: Neu5Ac(a2-8)Neu5Ac(a2-8)Neu5Ac(a2-8)Neu5Ac(a2-3)[GalNAc(b1-4)]Gal(b1-4)Glc
# Procedure, shortened: as §1
# [12] = target: Neu5Ac(a2-8)Neu5Gc(a2-3)Gal(b1-4)GlcNAc
# Procedure, shortened: as §1
# [13] = target: Neu5Ac(b2-6)Gal(b1-4)GlcNAc
# Procedure, shortened: as §1
# Neu5Ac(b2-6)GalNAc = target: Neu5Ac(b2-6)GalNAc
# Procedure, shortened: as §1
# [14] = target: Neu5Ac9Ac(a2-3)Gal(b1-3)GlcNAc
# Procedure, shortened: as §1
# [15] = target: Neu5Ac9Ac(a2-3)Gal(b1-4)GlcNAc
# Procedure, shortened: as §1
# [16] = target: Neu5Ac9Ac(a2-6)Gal(b1-4)GlcNAc
# Procedure, shortened: as §1
# [17] = target: Neu5Gc(a2-3)Gal(b1-3)GlcNAc
# Procedure, shortened: as §1
# [18] = target: Neu5Gc(a2-3)Gal(b1-3)[Fuc(a1-4)]GlcNAc
# Procedure, shortened: as §1
# Neu5Gc(a2-3)Gal(b1-4)Glc = target: Neu5Gc(a2-3)Gal(b1-4)Glc
# Procedure, shortened: as §1
# [19] = target: Neu5Gc(a2-3)Gal(b1-4)GlcNAc
# Procedure, shortened: as §1
# [20] = target: Neu5Gc(a2-3)Gal(b1-4)GlcNAc(b1-3)Gal(b1-4)GlcNAc(b1-2)Man(a1-3)[Neu5Gc(a2-3)Gal(b1-4)GlcNAc(b1-3)Gal(b1-4)GlcNAc(b1-2)Man(a1-6)]Man(b1-4)GlcNAc(b1-4)GlcNAc
# Procedure, shortened: as §1
# [21] = target: Neu5Gc(a2-3)Gal(b1-4)[Fuc(a1-3)]GlcNAc
# Procedure, shortened: as §1
# [22] = target: Neu5Gc(a2-6)Gal(b1-4)GlcNAc
# Procedure, shortened: as §1
# Neu5Gc(a2-6)GalNAc = target: Neu5Gc(a2-6)GalNAc
# Procedure, shortened: as §1
# [23] = target: Neu5Gc(a2-8)Neu5Ac(a2-3)Gal(b1-4)GlcNAc
# Procedure, shortened: as §1
# [24] = target: Neu5Gc(a2-8)Neu5Gc(a2-3)Gal(b1-4)GlcNAc
# Procedure, shortened: as §1
# [25] = target: Neu5Gc(a2-8)Neu5Gc(a2-3)Gal(b1-4)GlcNAc(b1-3)Gal(b1-4)GlcNAc
# Procedure, shortened: as §1
# [26] = target: Neu5Gc(a2-8)Neu5Gc(a2-6)Gal(b1-4)GlcNAc
# Procedure, shortened: as §1
# [27] = target: Neu5Gc(b2-6)Gal(b1-4)GlcNAc
# Procedure, shortened: as §1
binder,measurement,setting,value
B1,glycan array binding signal (z-score),Neu5Ac(a2-8)Neu5Ac,0.031
same,glycan array binding signal (z-score),[1],0.166
same,glycan array binding signal (z-score),[2],0.93
same,glycan array binding signal (z-score),[3],-0.113
same,glycan array binding signal (z-score),[4],-0.135
same,glycan array binding signal (z-score),[5],0.484
same,glycan array binding signal (z-score),[6],0.327
same,glycan array binding signal (z-score),[7],-0.395
same,glycan array binding signal (z-score),[8],-0.34
same,glycan array binding signal (z-score),[9],-0.567
same,glycan array binding signal (z-score),[10],0.707
same,glycan array binding signal (z-score),[11],0.689
same,glycan array binding signal (z-score),[12],-0.136
same,glycan array binding signal (z-score),[13],-0.378
same,glycan array binding signal (z-score),Neu5Ac(b2-6)GalNAc,-0.431
same,glycan array binding signal (z-score),[14],-0.588
same,glycan array binding signal (z-score),[15],-0.414
same,glycan array binding signal (z-score),[16],-0.318
same,glycan array binding signal (z-score),[17],-0.578
same,glycan array binding signal (z-score),[18],-0.414
same,glycan array binding signal (z-score),Neu5Gc(a2-3)Gal(b1-4)Glc,-0.182
same,glycan array binding signal (z-score),[19],-0.098
same,glycan array binding signal (z-score),[20],-0.162
same,glycan array binding signal (z-score),[21],0.165
same,glycan array binding signal (z-score),[22],0.081
same,glycan array binding signal (z-score),Neu5Gc(a2-6)GalNAc,-0.455
same,glycan array binding signal (z-score),[23],-0.128
same,glycan array binding signal (z-score),[24],-0.553
same,glycan array binding signal (z-score),[25],-0.078
same,glycan array binding signal (z-score),[26],-0.272
same,glycan array binding signal (z-score),[27],-0.163
